# From paper PMC6919601, “Identification of Plasmodium dipeptidyl aminopeptidase allosteric inhibitors by high throughput screening” (PLoS ONE, 2019)
# Screen size: about 110,000 compounds; about 230 (0.21%) showed an effect of 50% or more. This is one part of the list.
# Biological target: DPAP1 (Plasmodium falciparum, UniProt Q8IIJ9)
# Experiment: primary screen, percent inhibition; read by cleavage of a fluorogenic dipeptide substrate; higher = more effect of the substance
# Set-up: species or system P. falciparum D10 trophozoite lysates; single well
# 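Note: 30 min substrate incubation versus DMSO and 10 µM JCP410 controls.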
# Sequence of DPAP1 (Q8IIJ9 whole entry, looked up): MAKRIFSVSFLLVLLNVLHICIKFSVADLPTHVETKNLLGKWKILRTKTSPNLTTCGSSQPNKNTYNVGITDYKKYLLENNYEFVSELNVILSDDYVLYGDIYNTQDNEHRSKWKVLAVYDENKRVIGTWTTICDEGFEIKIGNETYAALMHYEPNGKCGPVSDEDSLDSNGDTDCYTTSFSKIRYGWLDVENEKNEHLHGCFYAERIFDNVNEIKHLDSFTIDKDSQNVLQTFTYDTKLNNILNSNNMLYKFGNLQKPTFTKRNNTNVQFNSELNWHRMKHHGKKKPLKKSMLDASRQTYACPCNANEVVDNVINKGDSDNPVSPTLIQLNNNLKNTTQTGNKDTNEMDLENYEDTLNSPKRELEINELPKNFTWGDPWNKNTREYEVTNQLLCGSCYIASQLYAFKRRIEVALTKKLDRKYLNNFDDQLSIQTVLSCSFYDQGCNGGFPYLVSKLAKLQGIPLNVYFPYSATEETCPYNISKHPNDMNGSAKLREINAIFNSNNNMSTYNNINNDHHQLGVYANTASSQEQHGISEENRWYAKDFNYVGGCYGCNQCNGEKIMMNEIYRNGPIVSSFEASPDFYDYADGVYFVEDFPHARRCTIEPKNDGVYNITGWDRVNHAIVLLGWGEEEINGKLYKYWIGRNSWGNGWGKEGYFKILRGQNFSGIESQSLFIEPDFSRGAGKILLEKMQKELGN
row,Compound,% Inhibition @ 10 uM
1,O=C(c1ccccc1)N1CCN(Cc2ccccc2)CC1,-4.3%
2,CC(/C=C1\N=C(c2cccc(F)c2)OC1=O)=C\c1ccccc1,7.62%
3,CCOC(=O)c1cccnc1SCC(=O)NC(C)CC (centres unmarked),-4.97%
4,CC(C)c1ccc(N2CC(C(=O)Nc3ccccc3Br)CC2=O)cc1 (centres unmarked),-4.71%
5,CC1CCC(N(C)CCc2ccccn2)C1 (centres unmarked),3.24%
6,COc1ccc(OCCC(=O)c2ccccc2)cc1,-2.32%
7,Cc1c(/C=C2\SC(=O)N(CC(=O)Nc3ccc4c(c3)OCO4)C2=O)c2ccccc2n1C,1.35%
8,Cc1nnc(N2CCCC(C(=O)Nc3ccc(Cl)cn3)C2)c2nn(-c3ccccc3)c(C)c12 (centres unmarked),0.535%
9,CCCCSc1nnc(-c2ccccc2N)c(O)n1,-1.99%
10,CCOc1ccccc1C(=O)NCc1ccc(Cl)c(Cl)c1,0.163%
11,C=C(C)[C@@H]1CC=C(CN2CCCC2CO)CC1 (some centres unmarked),-1.75%
12,CCNC(=O)N(CC)Cc1nc(-c2ccc(C)cc2)no1,0.00706%
13,O=C(CC1NC(=S)NC1=O)c1ccc2c(c1)CCCC2 (centres unmarked),-1.05%
14,CCOc1ccc(C2C3=C(O)CC(C)(C)CC3=Nc3nc(SC)nn32)c(OC)c1 (centres unmarked),-5.19%
15,CCCOc1ccc(C2C(C#N)=C(N)OC3=C2C(=O)CC(C)(C)C3)cc1OCC (centres unmarked),0.746%
16,Cc1c(OCc2ccccc2)ccc2c(C(F)(F)F)cc(=O)oc12,2.89%
17,CCOCCCNC(=O)CN1CCN(Cc2ccc(Cl)cc2)C1=O,1.49%
18,C#CCOc1ccc(C2C(C#N)=C(N)Oc3n[nH]c(C)c32)cc1 (centres unmarked),-6.58%
19,COc1ccc(C(=O)N[C@@H](CC(C)C)C(=O)NCC#N)cc1,-2.35%
20,COc1cc(OC)c2c(C3N=C(N)Nc4nc5ccccc5n43)cn(Cc3ccccc3)c2c1 (centres unmarked),5.38%
21,COCCn1c(-c2ccc(C)cc2)cc(C(=O)O)c1C,-3.33%
22,Cc1nc2cc(-c3ccccc3)nn2c(C)c1CCC(=O)NC(C)c1ccccc1 (centres unmarked),-4.1%
23,N#CC1=C(N)Oc2cc(O)ccc2C1c1cccnc1 (centres unmarked),0.0345%
24,O=C1CC(N2CCCCC2)C(=O)N1c1ccc(N2C(=O)CC(N3CCCCC3)C2=O)cc1 (centres unmarked),-0.46%
25,O=C(CN1CCN(Cc2ccc(Cl)cc2)C1=O)NCC1COc2ccccc2O1 (centres unmarked),-2.12%
26,Cc1c(Cl)cccc1N1C(=O)CC(C2CCCO2)C1=O (centres unmarked),-3.09%

row,Compound,% Inhibition @ 10 uM
1,O=C(NC12CC3CC(CC(C3)C1)C2)c1c(O)nc2c(c1O)CCCC2,5.85%
2,COc1ccccc1CNC(=O)c1cc2c(s1)CS(=O)(=O)C2,-1.69%
3,O=S(=O)(O)c1nnc2sc3ccccc3n12,2.9%
4,OCCNc1nc(N2CCOCC2)nc(N2CCOCC2)n1,2.58%
5,CCOc1ccc2nc(SC3CC(=O)N(c4ccc(OC)cc4)C3=O)nc(C)c2c1 (centres unmarked),-0.68%
6,COc1ccc(N2CCN(Cc3ccc(O)cc3)CC2)cc1,2.23%
7,Cc1cccc(NC(=O)c2ccco2)c1C,-4.12%
8,CCOc1ccc(CCNC(=O)CS(=O)(=O)Cc2nc(-c3ccc(C)cc3)oc2C)cc1,-0.138%
9,CC(C)CCNC(=O)C1CCN(S(=O)(=O)N2CCCCC2)CC1,0.387%
10,CC(C)=CCC[C@H](C)CCN(CC(C)O)CC(C)O (some centres unmarked),-3.72%
11,CCn1c(C(=O)O)c(CNCc2cccs2)c2ccc(C)cc21,-0.118%
12,CC(=O)c1ccc(NC(=O)CSc2nc(N)cc(N)n2)cc1,3.36%
13,CC(=O)Nc1ccc(NC(=O)c2cccs2)cc1,-0.68%
14,C=CCn1c(C(C)NC(=O)COC)nc2ccccc21 (centres unmarked),-3.48%
15,O=C1NC(c2ccccc2)=N/C1=C/c1ccco1,12.2%
16,C=CCOc1ccc(/C=C2/SC(=O)N(C(C)C)C2=O)cc1,-1.6%
17,Cc1nc(CC(=O)Nc2nc(-c3ccc(F)cc3)c(C)s2)cs1,-1.11%
18,CCc1nn(CC(=O)NCc2ccc(Cl)cc2)c(=O)c2cc3sccc3n12,3.4%
19,O=C1NC(/C=C/c2ccc([N+](=O)[O-])cc2)Nc2sc3c(c21)CCCC3 (centres unmarked),-4.23%
20,O=C(CCc1ccccc1)N1CCN(c2cccc(Cl)c2)CC1,-4.04%
21,Cc1csc(NC(=O)C(Cc2ccccc2)N2Cc3ccccc3C2=O)n1 (centres unmarked),6.04%
22,Cc1ccc(CCNC(=O)c2cc(S(=O)(=O)N3CCOCC3)cn2C)cc1,-1.26%
23,CCC[C@H](NC(=O)C1(NC(=O)c2cnccn2)CCCCC1)C(=O)c1nc2ccccc2o1,-4.72%
24,O=C1C2ON(c3ccccc3)C(c3ccc(F)cc3)C2C(=O)N1c1ccccc1 (centres unmarked),-4.58%
25,Cc1ccc(C2=NN(CCC(=O)N3CCC4(CC3)OCCO4)C(=O)CC2)cc1,-5.43%
26,Cc1ccc(CS(=O)(=O)CCC(=O)NCCN2CCC(Cc3ccccc3)CC2)cc1,-3.58%

row,Compound,% Inhibition @ 10 uM
1,O=C(NCCCN1CCc2ccccc2C1)C1CCN(c2nnc(-n3cccc3)s2)CC1,-2.25%
2,Cc1c(NC(=O)Cn2cnc3c(=O)n(C)c(=O)n(C)c32)cccc1-c1nc2cc(Cl)ccc2o1,0.749%
3,Nc1nnc(-c2ccc(Cn3c(-c4nonc4N)nc4ccccc43)cc2)s1,-2.88%
4,Cc1nc2ncnn2c(C)c1CCC(=O)NC(C)C12CC3CC(CC(C3)C1)C2 (centres unmarked),-2.25%
5,Oc1nc(S)nc(O)c1Cc1ccccc1,-3.64%
6,CCc1nnc(NC(=O)CCCOc2ccc(C(C)(C)C)cc2)s1,-13.1%
7,Cc1ccc(-c2cc(-c3ccccc3)nc(N3CCN(C)CC3)n2)cc1,-3.27%
8,C=CCNC(=O)c1cnn2c(C)c(Cc3ccccc3)c(C)nc12,-0.733%
9,CC(C)Cn1cc(NC(=O)NC2CCCc3ccccc32)c2ccccc2c1=O (centres unmarked),2.09%
10,CCCCc1ccc(-c2ccc(C)cc2O)nc1,-2.55%
11,CCOc1ccc(C(=O)Nc2nc(C)c(C(=O)N(C)C)s2)cc1,9.11%
12,CC(=O)c1cccc(N2C(=O)C3C4C=CC(C4)C3(C)C2=O)c1 (centres unmarked),4.12%
13,Cc1ccc(CNC(=O)CCCn2ncn3c(cc4occc43)c2=O)cc1,-3.79%
14,CC(=O)Nc1[nH]c(-c2ccccc2)cc1C(C)=O,-8.03%
15,O=C(Cn1c(-c2ccccc2)c[n+]2ccsc12)c1ccc(Br)cc1,-6.2%
16,COC(=O)c1sccc1S(=O)(=O)N1CCC(C(N)=O)CC1,-1.74%
17,CCS(=O)(=O)N1CCC(c2nnnn2-c2ccc(C)cc2)CC1,13.8%
18,CC(C)C(=O)N1CCN(c2ccccc2NC(=O)c2cccc3ccccc23)CC1,-1.44%
19,Cc1ccc(OCC(=O)Nc2nnc(S(=O)(=O)NCC3CCCO3)s2)cc1 (centres unmarked),-3.51%
20,O=C(Nc1ccccc1OC(F)F)C12CC3CC(C1)CC(n1cncn1)(C3)C2,2.08%
21,Cc1ccccc1OCC(=O)Nc1cccc2cccnc12,5.66%
22,Cc1cc(NC(=O)CSc2cn(CC(=O)N3CCCCCC3)c3ccccc23)no1,-1.39%
23,O=C(Cn1cc(C(=O)C(F)(F)F)c2ccccc21)N1CCCCC1,0.475%
24,CCC(Oc1ccccc1)C(=O)Nc1nn2c(-c3ccccc3)nnc2s1 (centres unmarked),3.92%
25,CCOC(=O)N1CCN(C(=O)/C(=C\c2cccs2)NC(=O)c2cccs2)CC1,-4.68%
26,Cc1cc(C)nc(SC(=O)c2ccc(Cl)cc2Cl)n1,-5.13%

row,Compound,% Inhibition @ 10 uM
1,Cc1cc(C)cc(N(CC(=O)N2CCC(C)CC2)S(=O)(=O)c2ccccc2)c1,-4.7%
2,CCCC(=O)Nc1ccc2c(c1)C(=O)N(CCC(=O)O)C2=O,-0.318%
3,Cc1cccc2c(O)c(NC(=O)NCCCO)cnc12,0.401%
4,Cc1nc(=O)c(-c2ccccc2)c(C)n1-c1ccccc1O,-1.66%
5,O=C(CCn1cccn1)NCc1ccc(F)cc1,-3.22%
6,CC(=O)c1c(C)nc2n(Cc3ccccc3)c3ccccc3n12,-1.5%
7,Cc1ccc(C)c(OCC(=O)NCc2ccco2)c1C,-0.95%
8,COc1ccccc1C(=O)N/C(=C\c1ccc(Br)cc1)C(=O)O,-1.19%
9,CN1CCN(C2=Cc3ccccc3Sc3cc(F)ccc32)CC1,-3.76%
10,COc1cc(/C=C(\C#N)c2nc(-c3ccccc3)cs2)cc(OC)c1OC,-4.12%
11,Cc1cccc(NS(=O)(=O)c2cc(Cl)ccc2Cl)c1C,-4.91%
12,CCOC(=O)c1c(C)[nH]c(C)c1S(=O)(=O)NCC(=O)Nc1nc2ccc(C)cc2s1,-3.61%
13,CCOC(=O)c1c(NC(=O)CSc2ccccc2)sc2c1CCCC2,-5.5%
14,CC(C)C(=O)Nc1ccc(NC(=O)c2ccc(F)cc2)cc1,-2.77%
15,CCN(c1ccccc1)c1nc2nonc2n2cnnc12,0.0792%
16,CCOc1ccc(-c2nc(-c3ccc(-n4cccc4)cc3)no2)cc1OCC,-0.403%
17,Cc1cccc2c3c4n(c12)CC1COC4(CCC3)O1 (centres unmarked),-10.7%
18,CC1=C(C(=O)Nc2ccccn2)C(c2ccc(Cl)cc2)NC(S)=N1 (centres unmarked),-0.339%
19,O=C1c2ccccc2C(O)(c2ccc(Br)cc2)N1c1ccccc1 (centres unmarked),-0.591%
20,COc1ccc(NC(=O)C(=O)NCC(C)C)c(OC)c1,2.94%
21,CCN(c1ccccc1)S(=O)(=O)c1ccc(NC(=O)COc2cc(C)ccc2C)cc1,3.21%
22,Cc1nc2ccc(S(=O)(=O)NC(C(=O)N(C)Cc3ccccc3)c3ccccc3)cc2s1 (centres unmarked),-0.522%
23,CCC12CN3CC(C)(CN(C1)C3c1c(C)n(Cc3ccccc3)c3ccccc13)C2=O (centres unmarked),-1.31%
